# Reference: paper PMC11060728
# Chains of the proteins cited; added tags and fusions are not shown. Lines headed by an entry give the natural chain unless they say otherwise; changes in a name come on top. A line that says so, or that is headed by a name, gives the form on record, which may keep a tag or linker.
# UniProt Q5QD51: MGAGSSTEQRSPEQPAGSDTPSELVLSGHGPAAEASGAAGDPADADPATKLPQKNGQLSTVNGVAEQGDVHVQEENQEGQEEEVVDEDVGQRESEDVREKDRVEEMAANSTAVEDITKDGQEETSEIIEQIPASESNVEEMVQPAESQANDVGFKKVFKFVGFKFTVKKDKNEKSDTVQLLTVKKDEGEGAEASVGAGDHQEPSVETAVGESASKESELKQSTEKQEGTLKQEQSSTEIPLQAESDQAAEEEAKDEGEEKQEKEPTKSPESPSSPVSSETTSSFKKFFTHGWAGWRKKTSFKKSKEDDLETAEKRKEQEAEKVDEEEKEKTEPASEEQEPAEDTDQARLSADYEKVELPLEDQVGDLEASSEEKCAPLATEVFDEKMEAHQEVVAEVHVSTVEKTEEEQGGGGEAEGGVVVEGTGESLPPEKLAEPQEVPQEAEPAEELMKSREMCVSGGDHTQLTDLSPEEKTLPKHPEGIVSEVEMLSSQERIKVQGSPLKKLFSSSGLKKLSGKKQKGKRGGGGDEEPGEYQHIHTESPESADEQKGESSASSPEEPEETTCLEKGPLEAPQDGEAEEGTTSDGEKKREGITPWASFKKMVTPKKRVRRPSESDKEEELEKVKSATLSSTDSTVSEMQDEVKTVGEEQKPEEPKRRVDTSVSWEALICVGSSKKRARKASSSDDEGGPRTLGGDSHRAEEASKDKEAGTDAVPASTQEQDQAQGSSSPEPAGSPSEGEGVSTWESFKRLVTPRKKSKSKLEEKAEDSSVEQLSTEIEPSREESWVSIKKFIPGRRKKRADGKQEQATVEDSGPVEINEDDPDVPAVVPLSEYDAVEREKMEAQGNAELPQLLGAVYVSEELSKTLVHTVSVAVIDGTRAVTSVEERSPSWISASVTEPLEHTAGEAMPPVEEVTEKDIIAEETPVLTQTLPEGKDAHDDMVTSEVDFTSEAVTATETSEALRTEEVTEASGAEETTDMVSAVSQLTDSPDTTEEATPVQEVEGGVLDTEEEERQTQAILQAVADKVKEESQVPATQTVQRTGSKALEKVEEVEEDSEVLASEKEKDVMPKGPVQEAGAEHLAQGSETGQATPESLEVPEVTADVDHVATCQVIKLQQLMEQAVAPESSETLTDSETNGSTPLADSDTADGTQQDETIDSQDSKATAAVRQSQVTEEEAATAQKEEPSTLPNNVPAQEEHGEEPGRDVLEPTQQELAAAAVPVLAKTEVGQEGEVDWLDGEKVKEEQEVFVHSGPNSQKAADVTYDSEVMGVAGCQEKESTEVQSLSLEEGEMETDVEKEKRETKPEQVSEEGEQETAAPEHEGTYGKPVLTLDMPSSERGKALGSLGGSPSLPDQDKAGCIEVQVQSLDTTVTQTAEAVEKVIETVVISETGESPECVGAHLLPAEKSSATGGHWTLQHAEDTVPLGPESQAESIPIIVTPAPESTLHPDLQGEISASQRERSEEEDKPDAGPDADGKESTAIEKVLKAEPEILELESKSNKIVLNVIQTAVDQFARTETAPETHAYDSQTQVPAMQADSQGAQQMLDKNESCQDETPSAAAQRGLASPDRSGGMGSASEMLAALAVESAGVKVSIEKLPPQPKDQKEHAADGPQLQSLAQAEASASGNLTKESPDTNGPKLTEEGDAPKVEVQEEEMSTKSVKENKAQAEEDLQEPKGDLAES
# FLAG-tagged gravin-α (K1502/1505R), myristoylation-deficient (Q5QD51, form named): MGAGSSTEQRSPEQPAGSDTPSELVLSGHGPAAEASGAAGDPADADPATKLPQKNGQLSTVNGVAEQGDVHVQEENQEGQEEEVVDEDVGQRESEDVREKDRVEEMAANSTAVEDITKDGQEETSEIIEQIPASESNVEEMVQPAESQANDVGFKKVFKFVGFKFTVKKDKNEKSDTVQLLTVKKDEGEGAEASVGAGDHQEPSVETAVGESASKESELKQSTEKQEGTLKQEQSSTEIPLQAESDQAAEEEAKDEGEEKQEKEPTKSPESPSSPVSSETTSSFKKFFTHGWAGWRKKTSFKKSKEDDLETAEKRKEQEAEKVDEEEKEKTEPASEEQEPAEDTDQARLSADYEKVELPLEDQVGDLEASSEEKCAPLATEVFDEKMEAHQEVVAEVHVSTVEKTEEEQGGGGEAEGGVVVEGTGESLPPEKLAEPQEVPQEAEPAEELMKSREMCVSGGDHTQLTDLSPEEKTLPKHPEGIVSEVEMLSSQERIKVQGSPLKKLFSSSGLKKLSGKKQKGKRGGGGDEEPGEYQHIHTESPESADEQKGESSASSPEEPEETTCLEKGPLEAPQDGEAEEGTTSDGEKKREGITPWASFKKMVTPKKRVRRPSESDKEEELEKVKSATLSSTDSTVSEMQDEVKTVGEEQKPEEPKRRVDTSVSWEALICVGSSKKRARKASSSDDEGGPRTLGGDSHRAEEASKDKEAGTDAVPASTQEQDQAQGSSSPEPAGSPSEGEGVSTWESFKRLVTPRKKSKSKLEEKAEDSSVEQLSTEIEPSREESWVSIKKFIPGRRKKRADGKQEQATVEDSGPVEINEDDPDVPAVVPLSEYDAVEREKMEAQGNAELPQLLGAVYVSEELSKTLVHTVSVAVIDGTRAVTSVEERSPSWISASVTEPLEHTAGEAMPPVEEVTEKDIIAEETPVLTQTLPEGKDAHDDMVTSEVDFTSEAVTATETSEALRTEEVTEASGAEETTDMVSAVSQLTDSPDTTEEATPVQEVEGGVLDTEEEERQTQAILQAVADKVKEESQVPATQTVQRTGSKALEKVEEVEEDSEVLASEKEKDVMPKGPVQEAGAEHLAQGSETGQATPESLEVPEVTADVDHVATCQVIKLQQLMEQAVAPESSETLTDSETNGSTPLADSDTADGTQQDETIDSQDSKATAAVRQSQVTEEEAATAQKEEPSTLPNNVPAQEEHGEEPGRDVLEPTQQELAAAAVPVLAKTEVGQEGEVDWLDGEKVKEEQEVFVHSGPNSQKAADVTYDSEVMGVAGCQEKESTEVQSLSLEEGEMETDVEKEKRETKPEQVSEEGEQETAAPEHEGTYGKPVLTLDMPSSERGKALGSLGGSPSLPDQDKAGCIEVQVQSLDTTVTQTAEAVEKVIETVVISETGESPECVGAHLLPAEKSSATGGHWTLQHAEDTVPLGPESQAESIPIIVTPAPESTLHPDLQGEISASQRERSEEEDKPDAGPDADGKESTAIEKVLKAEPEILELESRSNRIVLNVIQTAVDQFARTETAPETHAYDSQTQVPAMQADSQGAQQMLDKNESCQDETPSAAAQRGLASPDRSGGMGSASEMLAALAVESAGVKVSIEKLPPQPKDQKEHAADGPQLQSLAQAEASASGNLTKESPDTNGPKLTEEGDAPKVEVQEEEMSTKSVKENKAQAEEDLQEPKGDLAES
# These are yes or no findings as the source states them, for the method shown. In cells and extracts the contact can be indirect. Some results given as binding are weak or reduced against the parent protein; the word gives no strength. For part of these data: Tags and fused reporters may be left off the sequences shown.
# Assays:
# [1] = target: gravin-α, full-length (WT), epitope-tagged (rat) (UniProt Q5QD51); assay: co-IP; transfected HEK293 cells; Myc-tagged HDAC11 with full-length, truncated or QQ/AA gravin-α
# [2] = target: gravin-α, full-length (WT), epitope-tagged (rat) (UniProt Q5QD51); assay: co-IP; HEK293 cells transfected with epitope-tagged gravin-α and HDAC11, treated with Gravi-D, scrambled peptide or Gravi-D (QQ/AA)
# [3] = target: FLAG-tagged wild-type (WT) gravin-α (rat) (UniProt Q5QD51); assay: co-IP; 3T3-L1 adipocytes infected with lentiviruses encoding FLAG-tagged gravin-α (WT or K1502/1505R), treated with scrambled peptide, Gravi-D or FT895
# [4] = target: FLAG-tagged gravin-α (K1502/1505R), myristoylation-deficient (rat) (UniProt Q5QD51); assay: as above
binding [1],binding [2],binding [3],binding [4],Binder
binds,binds,,,"Myc-tagged HDAC11 (enzyme, UniProt Q96DB2 1-347) MLHTTQLYQHVPETRWPIVYSPRYNITFMGLEKLHPFDAGKWGKVINFLKEEKLLSDSMLVEAREASEEDLLVVHTRRYLNELKWSFAVATITEIPPVIFLPNFLVQRKVLRPLRTQTGGTIMAGKLAVERGWAINVGGGFHHCSSDRGGGFCAYADITLAIKFLFERVEGISRATIIDLDAHQGNGHERDFMDDKRVYIMDVYNRHIYPGDRFAKQAIRRKVELEWGTEDDEYLDKVERNIKKSLQEHLPDVVVYNAGTDILEGDRLGGLSISPAGIVKRDELVFRMVRGRRVPILMVTSGGYQKRTARIIADSILNLFGLGLIGPESPSVSAQNSDTPLLPPAVP"
,,binds,no binding,"caveolin-1 (Cav-1) (protein, UniProt P49817 1-178) MSGGKYVDSEGHLYTVPIREQGNIYKPNNKAMADEVTEKQVYDAHTKEIDLVNRDPKHLNDDVVKIDFEDVIAEPEGTHSFDGIWKASFTTFTVTKYWFYRLLSTIFGIPMALIWGIYFAILSFLHIWAVVPCIKSFLIEIQCISRVYSIYVHTFCDPLFEAIGKIFSNIRISTQKEI"
,,binds,no binding,"flotillin-2 (Flot-2) (protein, UniProt Q60634 1-428) MGNCHTVGPNEALVVSGGCCGSDYKQYVFGGWAWAWWCISDTQRISLEIMTLQPRCEDVETAEGVALTVTGVAQVKIMTEKELLAVACEQFLGKNVQDIKNVVLQTLEGHLRSILGTLTVEQIYQDRDQFAKLVREVAAPDVGRMGIEILSFTIKDVYDKVDYLSSLGKTQTAVVQRDADIGVAEAERDAGIREAECKKEMLDVKFMADTKIADSKRAFELQKSAFSEEVNIKTAEAQLAYELQGAREQQKIRQEEIEIEVVQRKKQIAVEAQEILRTDKELIATVRRPAEAEAHRIQQIAEGEKVKQVLLAQAEAEKIRKIGEAEAAVIEAMGKAEAERMKLKAEAYQKYGDAAKMALVLEALPQIAAKISAPLTKVDEIVVLSGDNSKVTSEVNRLLAELPASVHALTGVDLSKIPLIKNATGAQV"
